Laboratory results as given in PubChem BioAssay AID686979 (National Center for Advancing Translational Sciences (NCATS), 2013).
About 50,000 (12%) of roughly 420,000 compounds were called active. Inconclusive results, whose numbers are uncertain, are shown with a selection of clear calls. Calls follow the shape of the dose curve; as a rule, active = well fitted inhibition curve with a large enough effect; inconclusive = small, poorly fitted or top-dose-only effect; inactive = flat fitted curve, though single readings scatter. No potency is given beside an inconclusive call; the fits are too rough.

Assay: qHTS for Inhibitors of human tyrosyl-DNA phosphodiesterase 1 (TDP1): qHTS in cells in presence of CPT; also: nearly all actives have a fitted effect of over 55% in size
Settings: chicken DT40 Tdp1-/-;hTDP1 cells + 20 nM CPT, ATP luminescence, 48 h; activity change, negative = growth inhibition: at 46.2 µM (top of the series)
Procedure, shortened: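 Chicken DT40 Tdp1-/- cells stably complemented with human TDP1 were seeded at 400 cells/well in medium containing 20 nM camptothecin, exposed to pin-transferred compounds, and grown at 37 °C for at least 48 hr. Viability was read as ATP luminescence.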
% is scaled to controls: 0 for no effect and ±100 for the full control effect; potency is read from the fitted curve at half-maximal effect; tags tell the direction and shape of the fitted curve.

Compound	Potency	activity change, negative = growth inhibition
COc1ccc(Nc2nc(-c3ccccc3F)nc3ccccc23)cc1OC	active: 14.6 µM	–
CCCCOc1ccc(CSC2=NCCN2)cc1[N+](=O)[O-]	active: 18.4 µM	–
C=CCn1c(SCC(=O)/C(C#N)=C(\C)N)nc2sc(CC)cc2c1=O	active: 20.6 µM	–
CCc1cccc(C)c1NC(=O)CSc1nnc(C)o1	inactive	–
COC(=O)c1ccccc1OCCOc1ccccc1C(=O)OC	inactive	–
O=S(=O)(c1cccc(Cl)c1)N1CCN(c2nc(-c3cccs3)nc3ccccc23)CC1	inconclusive [inhibitor, single point]	–
COc1ccccc1N1CCN(C(=O)c2cc(S(=O)(=O)N3CCCCC3)ccc2C)CC1	inconclusive [inhibitor, single point]	–
c1ccc(-c2nc(-c3ccccn3)no2)cc1	active: 16.4 µM	–
Cc1ccc(S(=O)(=O)Nc2ccc3c(c2)nc(CCN2CCOCC2)n3C)cc1	inactive	–
CCOc1cc(/C=N/NC(=O)NN(C)c2ncc(C(F)(F)F)cc2Cl)ccc1O	–	inconclusive: -30.6% [inhibitor]
CC(C)c1ccc(NC(=O)C(Cc2ccccc2)NS(=O)(=O)c2ccc3c(c2)oc(=O)n3C)cc1 (centres undefined)	inconclusive [inhibitor, single point]	–
CC1=NN(c2ccccc2)C(=O)/C1=C\c1ccc(Oc2ccc([N+](=O)[O-])cc2[N+](=O)[O-])cc1	inconclusive [inhibitor, single point]	–
O=C(NCc1ccccc1)C(c1ccccc1)N(C(=O)c1csnn1)c1ccccc1 (centres undefined)	inconclusive [inhibitor, partial curve]	–
CN(C)CCNC(=O)Cn1nc(N2CCN(c3ccccc3)CC2)ccc1=O	inactive	–
CC1(C)C(=O)Nc2ccccc2N1C(=O)COC(=O)Cc1ccccc1F	inconclusive [inhibitor, single point]	–
Cc1ccc(-n2nnnc2SCc2nnc(-c3ccccc3Br)o2)cc1	inactive	–
Cc1cccn2c(=O)c(C(=O)NC3CC(C)CC(C)(C)C3)c(O)nc12 (centres undefined)	active: 7.31 µM	–
O=C(CN1CCN(CC(=O)c2ccc(Cl)cc2)CC1)c1ccc(Cl)cc1	inactive	–
CCOc1cc(N2CCOCC2)c(OCC)cc1NC(=O)COC(=O)c1ccccc1OC(F)F	inconclusive [inhibitor, single point]	–
O=C(NC(=O)c1ccccc1N1CCCCC1)Nc1ccc(Br)cc1	inactive	–
COc1cc(/C=C2\C(=O)ON=C2c2ccc(Cl)cc2)ccc1O	active: 16.4 µM	–
Cc1ccc(C)c(S(=O)(=O)c2nnn3c2nc(N2CCCCC2)c2sccc23)c1	inconclusive [inhibitor, single point]	–
O=C(O)c1cccc(Cn2cccn2)c1	inactive	–
CC1Cc2cc(C3(O)C(=O)c4ccccc4C3=O)ccc2N1 (centres undefined)	inactive	–
COc1ccc(NC(=O)CCc2nnc3n(CC(C)C)c(=O)c4ccccc4n23)cc1OC	inactive	–

Compound	Potency	activity change, negative = growth inhibition
CCc1ccc(CN/C=C/C(=O)c2ccc(Br)cc2)cc1	inactive	–
COc1ccccc1-c1nnc(SC(C)C(=O)Nc2ccc(C(N)=O)cc2)o1 (centres undefined)	inconclusive [inhibitor, single point]	–
CC(C)(C)OC(=O)N1CCC(c2c(C(=O)N3CCN(c4ncccn4)CC3)cnn2-c2cccc(F)c2)CC1	inactive	–
COc1ccc(C(C)(O)c2nc(-c3ccccc3C)cs2)cc1 (centres undefined)	active: 6.51 µM	–
c1cc(C2CCN(Cc3nc(-c4ccc5c(c4)OCO5)no3)CC2)ccn1	active: 20.6 µM	–
CC(=O)Nc1nonc1-c1nnc(SCc2ccccc2Cl)n1C	inconclusive [inhibitor, single point]	–
COc1ccc(OC)c(NC(=O)Cn2cc(C(=O)c3ccc(Cl)cc3)c(=O)c3cc(OC)ccc32)c1	inconclusive [inhibitor, single point]	–
COc1ccc(C(=O)Nc2ccc(-c3cn4ccsc4n3)cc2)cc1S(=O)(=O)N1CCOCC1	inconclusive [inhibitor, partial curve]	–
COc1ccc(Nc2nc(OC)nc(OC)n2)cc1	inactive	–
Cc1ccc(CNC(=O)c2ccc(Cn3cc(-c4ccc(C)cc4)nc3-c3ccncc3)cc2)cc1	inconclusive [inhibitor, single point]	–
O=C(/C=C/c1ccc2ccccc2n1)N1CCN(S(=O)(=O)c2ccc(F)cc2)CC1	inconclusive [inhibitor, single point]	–
Cc1cc(OCC(=O)Nc2ccccn2)c2c(C)c(C)c(=O)oc2c1	inactive	–
FC(F)(F)c1ccccc1Cc1c(-c2cccc(Cl)c2)nc2c3ccccc3ccn12	inconclusive [inhibitor, single point]	–
NC(=O)CC(NC(=O)Cc1ccc(Br)cc1)c1ccc(NC2CCCCCCC2)c([N+](=O)[O-])c1 (centres undefined)	inconclusive [inhibitor, single point]	–
CCn1cc(/C=C(\NC(=O)c2cc(OC)c(OC)c(OC)c2)C(=O)N2CCN(C)CC2)c2ccccc21	inactive	–
O=C(NCc1ccc2c(c1)OCO2)c1c(-c2ccsc2)sc2ccccc12	active: 14.6 µM	–
CCOc1ccc(NC(=O)CN(C)C(=O)c2ccccc2OCc2c(C)noc2C)cc1OCC	inconclusive [inhibitor, full curve]	–
O=C(O)[C@H](Cc1ccccc1)NC(=O)N1CCN(c2ccc(F)cc2)CC1	inactive	–
CCCCn1c(N)c(N(CC(C)C)C(=O)c2ccc(N(C)S(=O)(=O)c3ccc(C)cc3)cc2)c(=O)[nH]c1=O	inactive	–
Cc1ccc(-c2cc(C(=O)Nc3cccnc3)c3ccccc3n2)o1	active: 16.4 µM	–
COc1cc(/C=C2\C=CC(=O)O2)cc(OC)c1	inactive	–
NC(=O)CC(NC(=O)Cc1ccc(Br)cc1)c1ccc(NCc2ccc(F)c(F)c2)c([N+](=O)[O-])c1 (centres undefined)	active: 16.4 µM	–
OC(c1ccc2ccccc2c1)c1ncc(-c2ccc(C(F)(F)F)cc2)[nH]1 (centres undefined)	inconclusive [inhibitor, single point]	–
COc1ccc(-c2cc(C(=O)Oc3cccc(C)c3C)c3ccccc3n2)cc1	inconclusive [inhibitor, single point]	–
COc1ccc(NC(=O)c2ccc3c(c2)CCN3S(=O)(=O)c2ccccc2)cc1	inconclusive [inhibitor, single point]	–

Compound	Potency	activity change, negative = growth inhibition
COc1ccc(C=CC(=O)c2ccc3cc(OC)c(OC)cc3c2)cc1OC	inconclusive [inhibitor, single point]	–
CCc1nc2c(cnn2-c2ccc(Cl)cc2)c(=O)n1-c1ccc(OC)cc1	inconclusive [inhibitor, single point]	–
O=C(NNS(=O)(=O)c1ccc(Cl)cc1)C1CCN(Cc2ccccc2)CC1	inactive	–
O=C(Nc1cc(C(F)(F)F)ccc1N1CCOCC1)c1c(F)c(F)c(F)c(F)c1F	inconclusive [inhibitor, single point]	–
O=C(N/N=C/C=C/c1ccco1)c1cnccn1	inactive	–
CC(CC(=O)NNC(=O)c1ccncc1)c1ccccc1 (centres undefined)	inactive	–
CCOC(=O)CNc1ccc(C(=O)OCC)cc1[N+](=O)[O-]	inactive	–
CCOc1ccccc1CN1CCc2nc(Nc3ccccc3)ncc2C1	inconclusive [inhibitor, single point]	–
COc1ccc(NC(=O)C2(C)CCCN(C(C)=O)C2)cc1F (centres undefined)	inactive	–
O=C1N(Cc2cccnc2)C[C@@H]2C[C@@H](c3ccccc3C#Cc3ccccc3)N3CCC[C@@]123	active: 29.1 µM	–
Fc1ccccc1C1=NC(c2ccc(C(F)(F)F)cc2)=Nc2ccccc2N1	inconclusive [inhibitor, partial curve, poor fit]	–
COc1cc(CN2CCN(S(=O)(=O)c3ccc(F)cc3)CC2)cc(OC)c1OC	inconclusive [inhibitor, single point]	–
O=C(NCc1ccccn1)c1nn(-c2ccccc2F)nc1CO	inconclusive [inhibitor, single point]	–
CC(=O)c1ccc(N2CCN(C(=O)C3CCCN(S(=O)(=O)c4c(C)[nH]c(=O)[nH]c4=O)C3)CC2)cc1 (centres undefined)	inconclusive [inhibitor, single point]	–
COc1ccc(CCN2C(=O)CN(C3CCCCCC3)C(=O)C2c2ccc(C)cc2)cc1OC (centres undefined)	inconclusive [inhibitor, single point]	–
CCOc1ccc(N2C(=O)CC(N(CCc3ccc(OC)cc3)C(=O)c3cccc(F)c3)C2=O)cc1 (centres undefined)	inconclusive [inhibitor, single point]	–
COc1ccc(OCC(CO)N2CCN(c3ccccc3)CC2)cc1 (centres undefined)	inactive	–
COc1ccc(C(C#N)=C2C=CC(=NO)C(C)=C2Cl)cc1	active: 10.3 µM	–
CC(=O)OC1CCC2C3CCc4cc(OP(=O)(N5CC5)N5CC5)ccc4C3CCC12C (centres undefined)	inconclusive [inhibitor, single point]	–
COc1ccccc1NS(=O)(=O)c1cc(NC(=O)c2ccc(Cl)nc2)ccc1Cl	active: 9.2 µM	–
O=C(NCCc1cccs1)C(c1ccccc1)c1ccccc1	inconclusive [inhibitor, single point]	–
COc1cccc(CNC(=O)CSc2n[nH]c(-c3ccccc3Cl)n2)c1	inactive	–
Cc1ccc(C)c(Cn2cnc3ccccc3c2=O)c1	inactive	–
O=C(c1ccccc1)N1CCN(C2c3cccc4cccc(c34)C2NS(=O)(=O)c2ccccc2)CC1 (centres undefined)	inconclusive [inhibitor, single point]	–
